In all, about 33,000 sequences were measured (“E-score (-0.5 to 0.5)”: median about -0.011, highest 2% from about 0.28 on). This is one part of the list.
Biological target: T1, Gcr1 (UniProt P07261)
T1 sequence: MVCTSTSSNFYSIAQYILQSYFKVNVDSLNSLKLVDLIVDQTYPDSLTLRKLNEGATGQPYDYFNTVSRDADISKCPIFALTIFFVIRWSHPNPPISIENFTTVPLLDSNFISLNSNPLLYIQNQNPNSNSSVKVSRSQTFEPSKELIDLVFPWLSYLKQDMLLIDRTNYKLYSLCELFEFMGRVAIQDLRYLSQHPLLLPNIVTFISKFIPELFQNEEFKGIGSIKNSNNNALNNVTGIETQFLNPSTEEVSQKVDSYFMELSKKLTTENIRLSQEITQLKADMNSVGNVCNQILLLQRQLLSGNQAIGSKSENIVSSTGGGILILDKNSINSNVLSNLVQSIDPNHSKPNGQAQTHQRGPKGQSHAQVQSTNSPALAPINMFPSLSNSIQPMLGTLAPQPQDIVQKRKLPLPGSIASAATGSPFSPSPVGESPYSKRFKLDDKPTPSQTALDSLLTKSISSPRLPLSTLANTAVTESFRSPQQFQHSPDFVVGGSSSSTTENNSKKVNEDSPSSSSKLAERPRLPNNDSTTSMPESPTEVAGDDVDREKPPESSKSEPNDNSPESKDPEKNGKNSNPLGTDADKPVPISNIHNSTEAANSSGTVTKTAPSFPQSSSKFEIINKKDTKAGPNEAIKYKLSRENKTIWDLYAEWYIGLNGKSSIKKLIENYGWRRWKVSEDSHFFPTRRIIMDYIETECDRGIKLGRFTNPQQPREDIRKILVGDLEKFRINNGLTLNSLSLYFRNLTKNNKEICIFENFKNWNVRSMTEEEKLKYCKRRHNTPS
Test: PBM E-score (8-mer binding enrichment) (E-score (-0.5 to 0.5)); higher = stronger / more preferred TF binding; most listed sequences are background and not binding sites
Details: protein concentration: 100 nM; construct: GST-full length
Protocol: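 Universal 'all 10-mer' protein binding microarrays (Agilent AMADID 015681) probed with GST-tagged S. cerevisiae TFs (full-length or DBD) made by in vitro transcription/translation (PURExpress), about 100-200 nM. Bound TF was detected with fluorescent anti-GST. Each ungapped 8-mer (which stands for itself and its reverse complement) is scored by the PBM enrichment score (E-score), a modified Wilcoxon-Mann-Whitney statistic from -0.5 to +0.5, computed with the Universal PBM Analysis Suite. Scale: above 0.35 generally sequence-specific binding.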

| Sequence | PBM E-score |
| --- | --- |
| ACAAGCCA | -0.275 |
| CAGTATCG | -0.0211 |
| ATAAACTC | -0.0769 |
| ACCTATTA | 0.152 |
| CTGCTGGA | 0.0938 |
| CCATGACA | -0.207 |
| CTCGTGCC | -0.0839 |
| AGGCAATG | -0.272 |
| CCCTGGCG | 0.0359 |
| CGGCAAGC | -0.0115 |
| CCGCACAG | -0.103 |
| ATTCATAA | -0.0219 |
| CCCTTGCC | -0.171 |
| CGTCTTTA | 0.213 |
| CATCGCCG | -0.0764 |
| ACCCCTTC | 0.0192 |
| CCACCGGC | 0.13 |
| GATTTTGC | -0.0195 |
| GCGACACC | -0.0258 |
| ATCGGGTC | -0.0793 |
| CAGCACTC | -0.114 |
| CCGGGAAC | 0.172 |
| ATTCTTAA | 0.205 |
| GCGGCAAC | 0.0813 |
| ACATGCGA | -0.18 |

| Sequence | PBM E-score |
| --- | --- |
| GCTATCCA | -0.104 |
| GAGGACAC | -0.225 |
| ACCTCCAC | 0.0842 |
| ACTGATCT | -0.116 |
| GCGAGAGA | -0.106 |
| CGTTAGAG | -0.0235 |
| ATGTGGTA | 0.0954 |
| CGGACTAG | -0.217 |
| GCCATACC | 0.0599 |
| CCCTTTTA | 0.00798 |
| GGCGAGGA | -0.101 |
| AGGATAGG | 0.0177 |
| GAGTTATA | -0.115 |
| TCGTCAGA | -0.245 |
| GGTAATCA | -0.195 |
| CTTGCGTC | -0.0686 |
| TAAAAGGA | 0.153 |
| CCGACTCC | -0.0254 |
| AACATTTC | -0.0184 |
| GAGCTTGC | -0.244 |
| ACAATTGG | -0.131 |
| GACGTGGA | -0.141 |
| AAGTAGCC | 0.0411 |
| GCGAATTA | -0.00089 |
| AGAGAGAC | -0.101 |

| Sequence | PBM E-score |
| --- | --- |
| ACAGCGCA | -0.231 |
| ATACGGAT | 0.116 |
| ATCCGGCG | 0.143 |
| CCAAGCGC | 0.0772 |
| AAAGAAGC | 0.262 |
| CCTCCTTC | -0.13 |
| AGTTTACA | 0.0426 |
| AGCTACAG | 0.0682 |
| AAATCCAT | 0.129 |
| ATGTGAAT | -0.145 |
| ATTAGCAC | 0.0277 |
| GGACTGCC | -0.0677 |
| GAATCTGC | 0.139 |
| TCGCGGAA | -0.11 |
| AGGTACCG | 0.0491 |
| CGAATTGC | -0.175 |
| GGACTATA | -0.0925 |
| CCGACCGA | -0.201 |
| CTACCCCC | -0.16 |
| GAGCCGCA | 0.0487 |
| GTCCCATA | 0.0928 |
| CAGGAGGG | -0.0272 |
| GGCAAATA | -0.103 |
| CATCGGGA | 0.0473 |
| ACACCGAC | -0.157 |

| Sequence | PBM E-score |
| --- | --- |
| ATGATTTA | 0.0654 |
| TAGTCTGA | -0.0964 |
| AGCGGAGC | -0.151 |
| GGGCGTTA | -0.0666 |
| GTCCGACA | 0.0648 |
| CGGACACC | 0.0465 |
| CGGATCAA | -0.0941 |
| CGTCCACA | 0.0868 |
| CTCTCATC | -0.0935 |
| CCCGGATA | 0.00805 |
| CCGCCGCA | 0.0722 |
| TAAGACAA | -0.0918 |
| GGCTCTAC | 0.0648 |
| ACGGGTTC | 0.00654 |
| ACCCTAAT | 0.0853 |
| AAGATGTA | 0.0085 |
| CATAATTA | 0.103 |
| CTCCGAGC | -0.0144 |
| CCATTCGA | 0.104 |
| CGTAGAGC | 0.0698 |
| GACGGTGA | -0.246 |
| ATCGACGG | -0.18 |
| TCAACGCA | -0.226 |
| GACCCTCC | -0.0438 |
| AGAACTAA | -0.187 |

| Sequence | PBM E-score |
| --- | --- |
| GGAACACC | -0.0671 |
| GCAACCAA | 0.302 |
| CTTCCCAC | 0.206 |
| AGTTTTTC | 0.0995 |
| CGTGGACC | -0.0622 |
| AACGCAGA | 0.0509 |
| ATCGGCTG | -0.123 |
| CACACACG | 0.217 |
| AGAGATAA | 0.0874 |
| GGGCTGAA | -0.0743 |
| ATCGATTC | 0.125 |
| CGTTGCCA | 0.0696 |
| ATCAGGGG | -0.143 |
| AGAAGGGC | -0.091 |
| GGCACATA | 0.208 |
| GCGCAATA | 0.114 |
| AGGTCGAG | -0.112 |
| CAGCGAAC | -0.195 |
| GGAGGCAA | -0.149 |
| GTGTCCCA | -0.101 |
| CCGCTAGG | -0.135 |
| CACCACAA | 0.217 |
| GTATGCTA | -0.0409 |
| ACTGGGCA | 0.0436 |
| ACGTCGCA | -0.0147 |

| Sequence | PBM E-score |
| --- | --- |
| GTAATATA | 0.161 |
| AACCTTCT | 0.147 |
| CGGGCACG | 0.107 |
| TATCACGA | 0.0314 |
| ATATAAGG | 0.0992 |
| CCATCAGG | -0.171 |
| ACAAACCT | -0.129 |
| AATTTCAA | 0.137 |
| GTAAGAAC | -0.0201 |
| CTCGTAAC | 0.123 |
| TAGACGCA | 0.263 |
| ACTTAAAC | -0.0348 |
| CAACTACC | 0.0316 |
| CGAGCGCA | -0.102 |
| CACATGAG | 0.0841 |
| ATGCCCGC | -0.193 |
| GTTAGGAA | 0.171 |
| TCCGGAAA | 0.172 |
| TCGACGAA | -0.18 |
| CGCACCCG | 0.0194 |
| GCCAGCAC | 0.0816 |
| ATGTGTTC | 0.0237 |
| GCGCAAAC | -0.0195 |
| GCTGCAAC | 0.13 |
| AGGGCAAA | -0.232 |

| Sequence | PBM E-score |
| --- | --- |
| CCGGGCGC | 0.229 |
| CATGAAAG | -0.00556 |
| CATACGGA | 0.0485 |
| AGCGAGGA | -0.0372 |
| CACTAAAC | 0.134 |
| AAACGGCG | 0.054 |
| AGTGTAAT | -0.00732 |
| ACAATTTG | -0.0159 |
| AAACTGTA | 0.136 |
| GGTGGGGA | 0.345 |
| GCATAATA | 0.155 |
| AGGACGGA | -0.118 |
| AAGCAGGG | 0.00962 |
| AAACCGAG | -0.291 |
| ATGACACG | -0.0887 |
| AGCGTCGC | -0.0102 |
| CCGGGCGA | -0.128 |
| ACTACAGC | -0.0966 |
| AAATATAA | 0.25 |
| CCACGAGG | 0.151 |
| CTGTCCAC | -0.0451 |
| TGTTGGAA | 0.217 |

— the supplement of paper PMC3334620
